Data taken from patent US20260226189A1 (PHILOGEN S P A, published 2026).

Target: T1, CD28 on human T cells (human, UniProt P10747 19-220)
T1 construct: whole, on cells
Experiment: flow cytometry on human T cells, 50 nM, PE anti-human IgG Fc detection, control is secondary antibody only

Binder	binding result
anti-CD28 (AE2P)-anti-CEA (PEA2) bispecific antibody in (2+2) IgG4-(scFv)2 format (bispecific antibody, also called IgG4 AE2P-(scFvPEA2)2; anti-CD28 IgG4 (AE2P)-anti-CEA (scFv)2 (PEA2)) heavy: [about 100 residues omitted here]RYIAFDYWGQGTLVTVSSASTKGPSVFPLAPCSRSTSESTAALGCLVKDYFPEPVTVSWNSGALTSGVHTFPAVLQSSGLYSLSSVVTVPSSSLGTKTYTCNVDHKPSNTKVDKRV[human IgG4 Fc with S228P (EU numbers) omitted here] light: DIQMTQSPSSLSASVGDRVTITCRASQSISSYLNWYQQKPGKAPKLLIYAASSLQSGVPSRFSGSGSGTDFTLTISSLQPEDFATYYCQQGGMPPDTFGQGTKVEIKRTVAAPSVFIFPPSDEQLKSGTASVVCLLNNFYPREAKVQWKVDNALQSGNSQESVTEQDSKDSTYSLSSTLTLSKADYEKHKVYACEVTHQGLSSPVTKSFNRGECGGGGSGGGGSGGGGSEIVLTQSPGTLSLSPGERATLSCRASQSVSQNHLAWYQQKPGQAPRLLIYLASRRHTGIPDRFSGSGSGTDFTLTISRLEPEDFAVYYCQQSGRVPWTFGQGTKVEIKGGGGSGGGGSGGGGSEVQLLESGGGLVQPGGSLRLSCAASGFTFSRTAMSWVRQAPGKGLEWVSAIDYDGGVTYYADSVKGRFTISRDNSKNTLYLQMNSLRAEDTAVYYCAKLTYARFDYWGQGTLVTVSS	binds
anti-CD28 (AE2P)-anti-CEA (Sm3E) bispecific antibody in (2+2) IgG4-(scFv)2 format (bispecific antibody, also called IgG4 AE2P-(scFvSm3E)2; anti-CD28 IgG4 (AE2P)-anti-CEA (scFv)2 (Sm3E)) heavy: [about 100 residues omitted here]RYIAFDYWGQGTLVTVSSASTKGPSVFPLAPCSRSTSESTAALGCLVKDYFPEPVTVSWNSGALTSGVHTFPAVLQSSGLYSLSSVVTVPSSSLGTKTYTCNVDHKPSNTKVDKRV[human IgG4 Fc with S228P (EU numbers) omitted here] light: DIQMTQSPSSLSASVGDRVTITCRASQSISSYLNWYQQKPGKAPKLLIYAASSLQSGVPSRFSGSGSGTDFTLTISSLQPEDFATYYCQQGGMPPDTFGQGTKVEIKRTVAAPSVFIFPPSDEQLKSGTASVVCLLNNFYPREAKVQWKVDNALQSGNSQESVTEQDSKDSTYSLSSTLTLSKADYEKHKVYACEVTHQGLSSPVTKSFNRGECGGGGSGGGGSGGGGSQVKLEQSGAEVVKPGASVKLSCKASGFNIKDSYMHWLRQGPGQRLEWIGWIDPENGDTEYAPKFQGKATFTTDTSANTAYLGLSSLRPEDTAVYYCNEGTPTGPYYFDYWGQGTLVTVSSGGGGSGGGGSGGGGENVLTQSPSSMSVSVGDRVTIACSASSSVPYMHWLQQKPGKSPKLLIYLTSNLASGVPSRFSGSGSGTDYSLTITSVQPEDAATYYCQQRSSYPLTFGGGTKLEIK	binds
